# According to the supplement of paper PMC8728848:
# The other results are listed elsewhere or left out.
# Columns and labels:
# Assay in all cases: glycan array binding signal (z-score within array); higher = stronger binding
# Conditions in all cases: glycan notation: IUPAC condensed, linker removed
# [1] = target: Neu5Ac(a2-3)Gal
# Outline: (§1)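 Glycan array data came from 3228 arrays in the Consortium for Functional Glycomics database, and only arrays with an available protein sequence were kept. Glycan names were put into IUPAC-condensed notation, and columns mapping to the same glycan were averaged. The binding signal is a within-array Z-score, averaged across arrays of one protein sequence run at different concentrations or buffers and across linkers. A negative Z-score can be read as non-binding.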
# [2] = target: Neu5Ac(a2-3)Gal(b1-3)GalNAc
# Outline: as §1
# [3] = target: Neu5Ac(a2-3)Gal(b1-3)GalNAc(b1-3)Gal(a1-4)Gal(b1-4)Glc
# Outline: as §1
# [4] = target: Neu5Ac(a2-3)Gal(b1-3)GalNAc(b1-3)Gal(b1-4)GlcNAc
# Outline: as §1
# [5] = target: Neu5Ac(a2-3)Gal(b1-3)GalNAc(b1-4)[Neu5Ac(a2-3)]Gal(b1-4)Glc
# Outline: as §1
# [6] = target: Neu5Ac(a2-3)Gal(b1-3)GalNAc6S
# Outline: as §1
# [7] = target: Neu5Ac(a2-3)Gal(b1-3)GlcNAc
# Outline: as §1
# [8] = target: Neu5Ac(a2-3)Gal(b1-3)GlcNAc(b1-3)Gal(b1-3)GlcNAc
# Outline: as §1
# [9] = target: Neu5Ac(a2-3)Gal(b1-3)GlcNAc6S
# Outline: as §1
# [10] = target: Neu5Ac(a2-3)Gal(b1-3)[Fuc(a1-4)]GlcNAc
# Outline: as §1
# [11] = target: Neu5Ac(a2-3)Gal(b1-3)[Fuc(a1-4)]GlcNAc(b1-3)Gal(b1-3)[Fuc(a1-4)]GlcNAc
# Outline: as §1
# [12] = target: Neu5Ac(a2-3)Gal(b1-3)[Fuc(a1-4)]GlcNAc(b1-3)Gal(b1-4)[Fuc(a1-3)]GlcNAc
# Outline: as §1
# [13] = target: Neu5Ac(a2-3)Gal(b1-3)[Neu5Ac(a2-3)Gal(b1-4)]GlcNAc
# Outline: as §1
# [14] = target: Neu5Ac(a2-3)Gal(b1-3)[Neu5Ac(a2-6)]GalNAc
# Outline: as §1
# [15] = target: Neu5Ac(a2-3)Gal(b1-4)Glc
# Outline: as §1
# [16] = target: Neu5Ac(a2-3)Gal(b1-4)GlcNAc
# Outline: as §1
# [17] = target: Neu5Ac(a2-3)Gal(b1-4)GlcNAc(b1-2)Man(a1-3)[GlcNAc(b1-2)Man(b1-4)GlcNAc(b1-2)Man(a1-6)]Man(b1-4)GlcNAc(b1-4)GlcNAc
# Outline: as §1
# [18] = target: Neu5Ac(a2-3)Gal(b1-4)GlcNAc(b1-2)Man(a1-3)[Neu5Ac(a2-6)Gal(b1-4)GlcNAc(b1-2)Man(a1-6)]Man(b1-4)GlcNAc(b1-4)GlcNAc
# Outline: as §1
# [19] = target: Neu5Ac(a2-3)Gal(b1-4)GlcNAc(b1-3)Gal(b1-3)GlcNAc
# Outline: as §1
# [20] = target: Neu5Ac(a2-3)Gal(b1-4)GlcNAc(b1-3)Gal(b1-4)GlcNAc
# Outline: as §1
# [21] = target: Neu5Ac(a2-3)Gal(b1-4)GlcNAc(b1-3)Gal(b1-4)GlcNAc(b1-3)Gal(b1-4)GlcNAc
# Outline: as §1
# [22] = target: Neu5Ac(a2-3)Gal(b1-4)GlcNAc(b1-3)Gal(b1-4)[Fuc(a1-3)]GlcNAc
# Outline: as §1
# [23] = target: Neu5Ac(a2-3)Gal(b1-4)GlcNAc(b1-3)GalNAc
# Outline: as §1
# [24] = target: Neu5Ac(a2-3)Gal(b1-4)GlcNAc(b1-6)[Gal(b1-3)]GalNAc
# Outline: as §1
# [25] = target: Neu5Ac(a2-3)Gal(b1-4)GlcNAc(b1-6)[Neu5Ac(a2-3)Gal(b1-3)]GalNAc
# Outline: as §1
# [26] = target: Neu5Ac(a2-3)Gal(b1-4)GlcNAc6S
# Outline: as §1
# [27] = target: Neu5Ac(a2-3)Gal(b1-4)[Fuc(a1-3)]GlcNAc
# Outline: as §1
# [28] = target: Neu5Ac(a2-3)Gal(b1-4)[Fuc(a1-3)]GlcNAc(b1-3)Gal
# Outline: as §1
# [29] = target: Neu5Ac(a2-3)Gal(b1-4)[Fuc(a1-3)]GlcNAc(b1-3)Gal(b1-4)GlcNAc
# Outline: as §1
# [30] = target: Neu5Ac(a2-3)Gal(b1-4)[Fuc(a1-3)]GlcNAc(b1-3)Gal(b1-4)[Fuc(a1-3)]GlcNAc(b1-3)Gal(b1-4)[Fuc(a1-3)]GlcNAc
# Outline: as §1
# [31] = target: Neu5Ac(a2-3)Gal(b1-4)[Fuc(a1-3)]GlcNAc(b1-3)GalNAc
# Outline: as §1
# [32] = target: Neu5Ac(a2-3)Gal(b1-4)[Fuc(a1-3)]GlcNAc(b1-6)[Gal(b1-3)]GalNAc
# Outline: as §1
# [33] = target: Neu5Ac(a2-3)Gal(b1-4)[Fuc(a1-3)]GlcNAc(b1-6)[Neu5Ac(a2-3)Gal(b1-3)]GalNAc
# Outline: as §1
# [34] = target: Neu5Ac(a2-3)Gal(b1-4)[Fuc(a1-3)]GlcNAc6S
# Outline: as §1
# [35] = target: Neu5Ac(a2-3)Gal6S(b1-4)GlcNAc
# Outline: as §1
# [36] = target: Neu5Ac(a2-3)Gal6S(b1-4)[Fuc(a1-3)]GlcNAc
# Outline: as §1
# [37] = target: Neu5Ac(a2-3)GalNAc
# Outline: as §1
# [38] = target: Neu5Ac(a2-3)GalNAc(b1-4)GlcNAc
# Outline: as §1
# [39] = target: Neu5Ac(a2-3)[GalNAc(b1-4)]Gal(b1-4)Glc
# Outline: as §1
# [40] = target: Neu5Ac(a2-3)[GalNAc(b1-4)]Gal(b1-4)GlcNAc
# Outline: as §1
# [41] = target: Neu5Ac(a2-3)[Neu5Ac(a2-6)]GalNAc
# Outline: as §1
# [42] = target: Neu5Ac(a2-6)Gal
# Outline: as §1
binder,measurement,setting,value
"Neuropilin-1 (Rattus norvegicus), Q9QWJ9 (protein) MERGLPLLCATLALALALAGAFRSDKCGGTIKIENPGYLTSPGYPHSYHPSEKCEWLIQAPEPYQRIMINFNPHFDLEDRDCKYDYVEVIDGENEGGRLWGKFCGKIAPSPVVSSGPFLFIKFVSDYETHGAGFSIRYEIFKRGPECSQNYTAPTGVIKSPGFPEKYPNSLECTYIIFAPKMSEIILEFESFDLEQDSNPPGGVFCRYDRLEIWDGFPEVGPHIGRYCGQKTPGRIRSSSGILSMVFYTDSAIAKEGFSANYSVLQSSISEDFKCMEALGMESGEIHSDQITASSQYGTNWSVERSRLNYPENGWTPGEDSYREWIQVDLGLLRFVTAVGTQGAISKETKKKYYVKTYRVDISSNGEDWITLKEGNKAIIFQGNTNPTDVVFGVFPKPLITRFVRIKPASWETGISMRFEVYGCKITDYPCSGMLGMVSGLISDSQITASNQGDRNWMPENIRLVTSRTGWALPPSPHPYINEWLQVDLGDEKIVRGVIIQGGKHRENKVFMRKFKIAYSNNGSDWKMIMDDSKRKAKSFEGNNNYDTPELRAFTPLSTRFIRIYPERATHSGLGLRMELLGCEVEVPTAGPTTPNGNPVDECDDDQANCHSGTGDDFQLTGGTTVLATEKPTIIDSTIQSEFPTYGFNCEFGWGSHKTFCHWEHDSHAQLRWRVLTSKTGPIQDHTGDGNFIYSQADENQKGKVARLVSPVVYSQSSAHCMTFWYHMSGSHVGTLRVKLHYQKPEEYDQLVWMVVGHQGDHWKEGRVLLHKSLKLYQVIFEGEIGKGNLGGIAVDDISINNHIPQEDCAKPTDLDKKNTEIKIDETGSTPGYEEGKGDKNISRKPGNVLKTLDPILITIIAMSALGVLLGAVCGVVLYCACWHNGMSERNLSALENYNFELVDGVKLKKDKLNPQSNYSEA",glycan array binding signal (z-score),[1],-0.334
same,glycan array binding signal (z-score),[2],-0.323
same,glycan array binding signal (z-score),[3],-0.354
same,glycan array binding signal (z-score),[4],-0.405
same,glycan array binding signal (z-score),[5],-0.242
same,glycan array binding signal (z-score),[6],-0.301
same,glycan array binding signal (z-score),[7],-0.274
same,glycan array binding signal (z-score),[8],-0.266
same,glycan array binding signal (z-score),[9],-0.371
same,glycan array binding signal (z-score),[10],-0.229
same,glycan array binding signal (z-score),[11],-0.147
same,glycan array binding signal (z-score),[12],0.102
same,glycan array binding signal (z-score),[13],-0.199
same,glycan array binding signal (z-score),[14],-0.148
same,glycan array binding signal (z-score),[15],-0.207
same,glycan array binding signal (z-score),[16],-0.172
same,glycan array binding signal (z-score),[17],-0.297
same,glycan array binding signal (z-score),[18],-0.26
same,glycan array binding signal (z-score),[19],-0.287
same,glycan array binding signal (z-score),[20],-0.322
same,glycan array binding signal (z-score),[21],-0.331
same,glycan array binding signal (z-score),[22],-0.215
same,glycan array binding signal (z-score),[23],-0.271
same,glycan array binding signal (z-score),[24],-0.265
same,glycan array binding signal (z-score),[25],-0.251
same,glycan array binding signal (z-score),[26],-0.07
same,glycan array binding signal (z-score),[27],-0.216
same,glycan array binding signal (z-score),[28],-0.351
same,glycan array binding signal (z-score),[29],1.84
same,glycan array binding signal (z-score),[30],-0.084
same,glycan array binding signal (z-score),[31],3.21
same,glycan array binding signal (z-score),[32],8.12
same,glycan array binding signal (z-score),[33],4.25
same,glycan array binding signal (z-score),[34],-0.279
same,glycan array binding signal (z-score),[35],-0.331
same,glycan array binding signal (z-score),[36],-0.289
same,glycan array binding signal (z-score),[37],-0.28
same,glycan array binding signal (z-score),[38],-0.197
same,glycan array binding signal (z-score),[39],-0.256
same,glycan array binding signal (z-score),[40],-0.318
same,glycan array binding signal (z-score),[41],-0.162
same,glycan array binding signal (z-score),[42],-0.18
